# From ChEMBL document CHEMBL4888484, “Replenishing the malaria drug discovery pipeline: Screening and hit evaluation of the MMV Hit Generation Library 1 (HGL1) against asexual blood stage Plasmodium falciparum ,using a nano luciferase reporter read-out” (2022)
# Among all 150,000 compounds or so, about 540 (0.36%) showed an effect of 50% or more. The list shows a part of the results.
# System: Plasmodium falciparum
# Assay: Primary screen in NF54 nanoGlo assay, in single point, at 2uM, 72h; a lower Z score goes with more inhibition
# Format: functional, Erythrocyte
# Details: timepoint 72 hour
Compound,% Inhibition [%],Z score
COCCOCc1nc([C@H]2CCN(S(=O)(=O)c3cc(C)ccc3C)C2)no1,-20,3.85
CCCn1c(=O)c2sc(N3CCCC3)nc2n(CC(=O)NC(C)C)c1=O,-7,0.64
Cc1ccc(O)c(CNc2ccc3c(c2)OCC3(C)C)n1,39,-4.45
CCc1ncnc(NCC2CCCC2O)c1F (stereo unspecified),8,-1.22
Cc1nc[nH]c1CN1C[C@H]2CC[C@@H](C1)N(C(=O)NCc1ccccc1F)C2,-4,0.59
CNC(=O)c1ccc(-c2ccc(C(=O)N3CCC(F)(F)CC3)cc2)o1,-7,1.09
Cc1cccc(N2C(=O)C3C(c4ccccc4)CCC(c4ccccc4)C3C2=O)c1C (stereo unspecified),-11,1.22
O=S(=O)(c1ccc(-c2nc3ccccc3s2)cc1)N1CCCCCC1,-14,1.96
CCc1oc2ccccc2c1CC(=O)N1CCOC[C@H]1c1c(C)nn(C)c1C,-10,2.07
COc1cc2c(cc1OC)CN(C(=O)CN1c3ccccc3C(C(N)=O)CC1C)CC2 (stereo unspecified),-9,1.05
OCC1(O)CCN(Cc2ccc(C3CCCCC3)s2)CC1,8,-1.74
CC(C)OCCCNc1ncc(C#N)c(NCCCOC(C)C)n1,12,-2.29
CC[C@H]1CC[C@@H](C)N(C(=O)c2ccc3ncccc3c2)C1,-11,1.28
CN1CCC(C(=O)C(C#N)c2nc(-c3ccccc3)cs2)CC1=O (stereo unspecified),9,-1.67
CC(=O)c1cccc(CN2CCN(Cc3cc(C)cc(C)c3)C(=O)C2)c1,-4,0.77
O=C(C[C@@H]1C=CCC1)NC(C1CC1)C1CC1,27,-3.09
CC(C)Cc1nc(CNC(=O)c2coc(C3CC3)n2)no1,-4,0.62
COCCN(CCOc1ccccc1F)C(=O)c1nc2ncccn2n1,-9,1.71
COc1cccc(Cn2c(C)c(C3CCN(S(=O)(=O)c4cccc(C)c4)CC3)c3ccccc32)c1,-8,1.13
CN(C)c1ccc(CN2CCC[C@H](C(F)(F)F)C2)cn1,9,-1.11
C[C@@H](Cc1ccccn1)NC(=O)c1ccc2nc(-c3ccc(F)cc3)cn2c1,-11,1.1
Cc1cccc(CNC(=O)c2ccc(-n3c(C)cc4c3CC[C@H](C)C4)cc2)c1,-4,0.51
C#CCOC[C@@H](O)CN(Cc1cccc(C)c1)C(C)C,0,0.03
O=C(CCn1cncn1)N1CCOC[C@@H]1CC1CCOCC1,-11,1.16
Cc1nc(C)n(C[C@H]2CCCCN2CCn2cccn2)n1,1,-0.1
CC(C)n1ccnc1-c1cccc(C(=O)NCCc2ccco2)c1,-10,1.92
c1cnn(CCCNc2nc(C3CC3)nc3c2CCC3)c1,-15,1.59

Compound,% Inhibition [%],Z score
CN(CCCn1cccn1)Cc1cccc(-c2nc3c(c(=O)[nH]2)CCCC3)c1,2,-0.27
O=C1C[C@H](c2nc(-c3ccc(-c4csc(C5CC5)n4)cc3)no2)CN1c1ccccc1,-14,1.46
CC(C)(C)[C@H]1CCc2c(sc(NC(=O)c3cc4nc(-c5ccc6c(c5)OCO6)cc(C(F)(F)F)n4n3)c2C#N)C1,-2,0.22
Nn1c(-c2ccc(COc3ccccc3Br)cc2)nc2ccccc2c1=O,-1,0.15
F[C@H]1CCCC[C@@H]1NCc1csnn1,-9,1.32
CCCCNCc1ccc(Br)cc1,10,-1.23
CC(C)(C)c1nc2ccccn2c1-c1ccc(C(=O)N2CCOCC2)cc1,-17,2.48
COC(=O)CCC(=O)Nc1nc(C)sc1-c1ccccc1,12,-1.78
CC(=O)N1CCN(C(=O)C2=C(C)NC(=O)N[C@H]2CCc2ccccc2)CC1,-9,1.1
CCCc1noc([C@H](C)N(C)Cc2nc3ccccc3s2)n1,-13,1.76
CN(CCn1ccnc1)c1cc(C2CC2)ncn1,17,-2.05
CC(C)(C)n1cc(Cn2ccc(=O)c3cccc(OC(F)(F)F)c32)nn1,-9,1.14
CCC(C(=O)O)N1CCCC(CN2CCN(c3ccccn3)CC2)C1 (stereo unspecified),-9,0.87
O=c1[nH]nc(Cc2ccncc2)n1CC1CCCCC1,-11,2.16
CC(=O)N[C@@H](Cc1c[nH]cn1)c1nc(CC(N)=O)nn1C1CCCCC1,-11,1.34
CC(C)(C(=O)N1CC(CCO)C1)[C@H](O)c1cc(Cl)cc(Cl)c1,5,-0.56
Cc1ccc(CC(=O)N2CCN(c3nc4c(s3)c(C)nn4-c3ccc(F)cc3)CC2)cc1,-15,1.64
Cn1cc(-c2ccccc2)c(NC(=O)N2CC[C@H]2C2CC2)n1,-12,2.11
COc1ccccc1CNC(=O)C1CCN(c2nc3ccc(Cl)cc3[nH]2)CC1,-5,0.85
CC(C)CCN(C(=O)CN(C)S(C)(=O)=O)C1CCCC1,-11,1.13
Cc1cc(-c2ncccc2NC(=O)N(CCO)CC(F)F)cs1,3,-0.51
C#CCCC1(CCC(=O)N(C)C[C@H]2CCCOC2)N=N1,-12,1.53
Cc1cccc(S(=O)(=O)[C@H](C#N)c2nc3ccccc3nc2N2CCN(Cc3ccccc3)CC2)c1,-3,0.35
C[C@H]1[C@@H]2[C@@H](O)[C@H]([C@H](C)C(=O)N3CCOCC3)CC[C@@]2(C)CC[C@@H]1NC(=O)c1ccccn1,-8,1.08
O=C(Nc1ccc(F)c(S(=O)(=O)Nc2cccc(C(F)(F)F)c2)c1)c1cc2ccccc2o1,-8,1.43
CCN1CCN(C2CN(C(=O)c3c(C)[nH]c4ccccc34)C2)CC1,-18,3.61
